These results are taken from patent US9873709B2 (priority 2013, dated 2018).

The test has as its target isolated recombinant JAK1 kinase domain (Homo sapiens (Human), UniProt P23458). As to conditions: read-out: JAK1 Ki; isolated recombinant JAK1 kinase domain, 25 μM ATP.
`O=C(c1ccc(Nc2nc3c(N4CCC(O)(c5ccc(Cl)cc5)CC4)cccn3n2)cc1)N1CCN2CCCCC2C1` (stereo not drawn) [Example 1-137, 1,3,4,6,7,8,9,9a-octahydropyrido[1,2-a]pyrazin-2-yl-[4-[[8-[4-(4-chlorophenyl)-4-hydroxy-1-piperidyl]-[1,2,4]triazolo[1,5-a]pyridin-2-yl]amino]phenyl]methanone]: the Ki amounted to 3.88 nM.

Turning to `CN(Cc1cccnc1)C(=O)c1ccc(Nc2nc3c(N4CCC(O)(c5ccc(Cl)cc5)CC4)cccn3n2)cc1` [Example 1-138, 4-[[8-[4-(4-chlorophenyl)-4-hydroxy-1-piperidyl]-[1,2,4]triazolo[1,5-a]pyridin-2-yl]amino]-N-methyl-N-(3-pyridylmethyl)benzamide], the Ki was found to be 1.53 nM.

As for `CN(C)CCN1CCN(C(=O)c2ccc(Nc3nc4c(N5CCC(O)(c6ccc(Cl)cc6)CC5)cccn4n3)cc2)CC1` [Example 1-139, [4-[[8-[4-(4-chlorophenyl)-4-hydroxy-1-piperidyl]-[1,2,4]triazolo[1,5-a]pyridin-2-yl]amino]phenyl]-[4-[2-(dimethylamino)ethyl]piperazin-1-yl]methanone], the inhibitory constant (Ki) amounted to 2.48 nM.

For `Cc1cccc(C(C)NC(=O)c2ccc(Nc3nc4c(N5CCC(O)(c6ccc(Cl)cc6)CC5)cccn4n3)cc2)n1` (stereo not drawn) [Example 1-140, 4-[[8-[4-(4-chlorophenyl)-4-hydroxy-1-piperidyl]-[1,2,4]triazolo[1,5-a]pyridin-2-yl]amino]-N-[1-(6-methyl-2-pyridyl)ethyl]benzamide], the Ki worked out at 4.88 nM.

Regarding `CN1CCCC(CNC(=O)c2ccc(Nc3nc4c(N5CCC(O)(c6ccc(Cl)cc6)CC5)cccn4n3)cc2)C1` (stereo not drawn) [Example 1-141, 4-[[8-[4-(4-chlorophenyl)-4-hydroxy-1-piperidyl]-[1,2,4]triazolo[1,5-a]pyridin-2-yl]amino]-N-[(1-methyl-3-piperidyl)methyl]benzamide], the Ki is 1.71 nM.

With `O=C(c1ccc(Nc2nc3c(N4CCC(O)(c5ccc(Cl)cc5)CC4)cccn3n2)cc1)N(Cc1ccccn1)C1CC1` [Example 1-142, 4-[[8-[4-(4-chlorophenyl)-4-hydroxy-1-piperidyl]-[1,2,4]triazolo[1,5-a]pyridin-2-yl]amino]-N-cyclopropyl-N-(2-pyridylmethyl)benzamide], the Ki amounted to 3.11 nM.

As for `O=C(c1ccc(Nc2nc3c(N4CCC(O)(c5ccc(Cl)cc5)CC4)cccn3n2)cc1)N1CCCC(N2CCOCC2)C1` (stereo not drawn) [Example 1-143, [4-[[8-[4-(4-chlorophenyl)-4-hydroxy-1-piperidyl]-[1,2,4]triazolo[1,5-a]pyridin-2-yl]amino]phenyl]-(3-morpholino-1-piperidyl)methanone], the Ki turned out to be 3.49 nM.

With `O=C(c1ccc(Nc2nc3c(N4CCC(O)(c5ccc(Cl)cc5)CC4)cccn3n2)cc1)N1CCC(c2ccccn2)CC1` [Example 1-144, [4-[[8-[4-(4-chlorophenyl)-4-hydroxy-1-piperidyl]-[1,2,4]triazolo[1,5-a]pyridin-2-yl]amino]phenyl]-[4-(2-pyridyl)-1-piperidyl]methanone], the Ki came out at 4.24 nM.

Turning to `O=C(c1ccc(Nc2nc3c(N4CCC(O)(c5ccc(Cl)cc5)CC4)cccn3n2)cc1)N1CCC(Cc2cccnc2)CC1` [Example 1-145, [4-[[8-[4-(4-chlorophenyl)-4-hydroxy-1-piperidyl]-[1,2,4]triazolo[1,5-a]pyridin-2-yl]amino]phenyl]-[4-(3-pyridylmethyl)-1-piperidyl]methanone], the Ki came out at 5.76 nM.

Consider `O=C(c1ccc(Nc2nc3c(N4CCC(O)(c5ccc(Cl)cc5)CC4)cccn3n2)cc1)N1CCC(Cc2ccncc2)C1` (stereo not drawn) [Example 1-146, [4-[[8-[4-(4-chlorophenyl)-4-hydroxy-1-piperidyl]-[1,2,4]triazolo[1,5-a]pyridin-2-yl]amino]phenyl]-[3-(4-pyridylmethyl)pyrrolidin-1-yl]methanone], for which the Ki came out at 3.05 nM.

In the case of `O=C(c1ccc(Nc2nc3c(N4CCC(O)(c5ccc(Cl)cc5)CC4)cccn3n2)cc1)N1CCCC1c1ccncc1` (stereo not drawn) [Example 1-147, [4-[[8-[4-(4-chlorophenyl)-4-hydroxy-1-piperidyl]-[1,2,4]triazolo[1,5-a]pyridin-2-yl]amino]phenyl]-[2-(4-pyridyl)pyrrolidin-1-yl]methanone], the Ki was found to be 2.1 nM.

In the case of `O=C(c1ccc(Nc2nc3c(N4CCC(O)(c5ccc(Cl)cc5)CC4)cccn3n2)cc1)N1CCOC(c2ccccn2)C1` (stereo not drawn) [Example 1-148, [4-[[8-[4-(4-chlorophenyl)-4-hydroxy-1-piperidyl]-[1,2,4]triazolo[1,5-a]pyridin-2-yl]amino]phenyl]-[2-(2-pyridyl)morpholin-4-yl]methanone], the Ki amounted to 5.65 nM.

Turning to `O=C(c1ccc(Nc2nc3c(N4CCC(O)(c5ccc(Cl)cc5)CC4)cccn3n2)cc1)N1CCCC(c2ccccn2)C1` (stereo not drawn) [Example 1-149, [4-[[8-[4-(4-chlorophenyl)-4-hydroxy-1-piperidyl]-[1,2,4]triazolo[1,5-a]pyridin-2-yl]amino]phenyl]-[3-(2-pyridyl)-1-piperidyl]methanone], the Ki turned out to be 8.96 nM.

`CNC(=O)C1CN(C(=O)c2ccc(Nc3nc4c(N5CCC(O)(c6ccc(Cl)cc6)CC5)cccn4n3)cc2)CCN1CCc1ccccc1` (stereo not drawn) [Example 1-150]: the Ki turned out to be 5.59 nM.

Turning to `CN(C)c1cc(CC2CCN(C(=O)c3ccc(Nc4nc5c(N6CCC(O)(c7ccc(Cl)cc7)CC6)cccn5n4)cc3)C2)ncn1` (stereo not drawn) [Example 1-151, [4-[[8-[4-(4-chlorophenyl)-4-hydroxy-1-piperidyl]-[1,2,4]triazolo[1,5-a]pyridin-2-yl]amino]phenyl]-[3-[[6-(dimethylamino)pyrimidin-4-yl]methyl]pyrrolidin-1-yl]methanone], the Ki was determined as 2.8 nM.

`CNC(=O)C1CN(C)CCN1C(=O)c1ccc(Nc2nc3c(N4CCC(O)(c5ccc(Cl)cc5)CC4)cccn3n2)cc1` (stereo not drawn) [Example 1-152, 1-[4-[[8-[4-(4-chlorophenyl)-4-hydroxy-1-piperidyl]-[1,2,4]triazolo[1,5-a]pyridin-2-yl]amino]benzoyl]-N,4-dimethyl-piperazine-2-carboxamide]: the Ki worked out at 2.79 nM.

For the compound `CNC(=O)C1CN(C(=O)c2ccc(Nc3nc4c(N5CCC(O)(c6ccc(Cl)cc6)CC5)cccn4n3)cc2)CCN1Cc1ccccc1` (stereo not drawn) [Example 1-153, 1-benzyl-4-[4-[[8-[4-(4-chlorophenyl)-4-hydroxy-1-piperidyl]-[1,2,4]triazolo[1,5-a]pyridin-2-yl]amino]benzoyl]-N-methyl-piperazine-2-carboxamide], the Ki was determined as 2.43 nM.

Take `CN1CCC(CCNC(=O)c2ccc(Nc3nc4c(N5CCC(O)(c6ccc(Cl)cc6)CC5)cccn4n3)cc2)CC1` [Example 1-154, 4-[[8-[4-(4-chlorophenyl)-4-hydroxy-1-piperidyl]-[1,2,4]triazolo[1,5-a]pyridin-2-yl]amino]-N-[2-(1-methyl-4-piperidyl)ethyl]benzamide]: the Ki came to 1.98 nM.

`O=C(c1ccc(Nc2nc3c(N4CCC(O)(c5ccc(Cl)cc5)CC4)cccn3n2)cc1)N1CCC(Cc2cccnc2)C1` (stereo not drawn) [Example 1-155, [4-[[8-[4-(4-chlorophenyl)-4-hydroxy-1-piperidyl]-[1,2,4]triazolo[1,5-a]pyridin-2-yl]amino]phenyl]-[3-(3-pyridylmethyl)pyrrolidin-1-yl]methanone]: the Ki worked out at 3.2 nM.

Consider `Cc1ccc(CC2CCN(C(=O)c3ccc(Nc4nc5c(N6CCC(O)(c7ccc(Cl)cc7)CC6)cccn5n4)cc3)C2)nc1` (stereo not drawn) [Example 1-156, [4-[[8-[4-(4-chlorophenyl)-4-hydroxy-1-piperidyl]-[1,2,4]triazolo[1,5-a]pyridin-2-yl]amino]phenyl]-[3-[(5-methyl-2-pyridyl)methyl]pyrrolidin-1-yl]methanone], for which the Ki stood at 6.51 nM.

With `O=C(c1ccc(Nc2nc3c(N4CCC(O)(c5ccc(Cl)cc5)CC4)cccn3n2)cc1)N1CCC(Cc2ccccn2)C1` (stereo not drawn) [Example 1-157, [4-[[8-[4-(4-chlorophenyl)-4-hydroxy-1-piperidyl]-[1,2,4]triazolo[1,5-a]pyridin-2-yl]amino]phenyl]-[3-(2-pyridylmethyl)pyrrolidin-1-yl]methanone], the Ki came to 3.7 nM.

In the case of `O=C(c1ccc(Nc2nc3c(N4CCC(O)(c5ccc(Cl)cc5)CC4)cccn3n2)cc1)N1CCC(Cc2ccccn2)CC1` [Example 1-158, [4-[[8-[4-(4-chlorophenyl)-4-hydroxy-1-piperidyl]-[1,2,4]triazolo[1,5-a]pyridin-2-yl]amino]phenyl]-[4-(2-pyridylmethyl)-1-piperidyl]methanone], the Ki came out at 4.01 nM.

In the case of `Cc1cccc(CCNC(=O)c2ccc(Nc3nc4c(N5CCC(O)(c6ccc(Cl)cc6)CC5)cccn4n3)cc2)n1` [Example 1-159, 4-[[8-[4-(4-chlorophenyl)-4-hydroxy-1-piperidyl]-[1,2,4]triazolo[1,5-a]pyridin-2-yl]amino]-N-[2-(6-methyl-2-pyridyl)ethyl]benzamide], the Ki is 4.82 nM.

With `O=C(NCCc1ccncc1)c1ccc(Nc2nc3c(N4CCC(O)(c5ccc(Cl)cc5)CC4)cccn3n2)cc1` [Example 1-161, 4-[[8-[4-(4-chlorophenyl)-4-hydroxy-1-piperidyl]-[1,2,4]triazolo[1,5-a]pyridin-2-yl]amino]-N-[2-(4-pyridyl)ethyl]benzamide], the Ki came to 1.99 nM.

On to `O=C(NCCc1ccccn1)c1ccc(Nc2nc3c(N4CCC(O)(c5ccc(Cl)cc5)CC4)cccn3n2)cc1` [Example 1-162, 4-[[8-[4-(4-chlorophenyl)-4-hydroxy-1-piperidyl]-[1,2,4]triazolo[1,5-a]pyridin-2-yl]amino]-N-[2-(2-pyridyl)ethyl]benzamide], for which the Ki was 2.91 nM.

On to `CNC(=O)C1CN(C(=O)c2ccc(Nc3nc4c(N5CCC(O)(c6ccc(Cl)cc6)CC5)cccn4n3)cc2)CCN1C` (stereo not drawn) [Example 1-163, 4-[4-[[8-[4-(4-chlorophenyl)-4-hydroxy-1-piperidyl]-[1,2,4]triazolo[1,5-a]pyridin-2-yl]amino]benzoyl]-N,1-dimethyl-piperazine-2-carboxamide], for which the Ki is 2.57 nM.

For `CN(C)C(=O)C1CN(C(=O)c2ccc(Nc3nc4c(N5CCC(O)(c6ccc(Cl)cc6)CC5)cccn4n3)cc2)C1` [Example 1-164, 1-[4-[[8-[4-(4-chlorophenyl)-4-hydroxy-1-piperidyl]-[1,2,4]triazolo[1,5-a]pyridin-2-yl]amino]benzoyl]-N,N-dimethyl-azetidine-3-carboxamide], the Ki amounted to 0.8 nM.
